Among all 120,000 compounds or so, about 5,300 (4.4%) were called active. Inconclusive results, whose numbers are uncertain, are shown with a selection of clear calls. Calls come from the whole dose curve; as a rule, active = well fitted inhibition curve with a large enough effect; inconclusive = small, poorly fitted or top-dose-only effect; inactive = no such curve, though single readings can be large or run the other way. Potencies of inconclusive entries are doubtful fits and often do not repeat.
Assay: qHTS Primary assay for Inhibitors of Plasmodium falciparum Dd2 growth in vitro; note: nearly all actives have a fitted effect of over 65% in size
Conditions: P. falciparum Dd2 growth, SYBR Green, 72 h; series mostly up to 28.9 µM
Summary of the method: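 Readout: SYBR Green fluorescence, 485 nm excitation, 535 nm emission, after ~16 h lysis at 37C. Before that, Dd2-infected red cells (2.5% hematocrit) grew 72 h with compound, 29 uM top final concentration.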
For `O=C(Nc1nccs1)[C@@H]1O[C@H](CCN2CCCCC2)CC[C@@H]1O`, the Potency was inconclusive: 11.2 µM [inhibitor, single point]. In the case of `COCCNC(=O)C(NC(=O)c1ccc(OC)cc1)C1CCN(C(=O)c2ccccc2)CC1` (configuration not stated), the Potency is reported as “inactive”. With `Cc1ccc(S(=O)(=O)NCC(Nc2cccc(Cl)c2)c2ccccc2)cc1` (configuration not stated) the Potency was inconclusive: 11.2 µM [inhibitor, single point]. With `COCC1CN(C)CC12CCN(C(=O)Cn1c(=O)oc3ccccc31)CC2` (configuration not stated) the Potency was “inactive”. In the case of `CCOc1ccccc1C1C(C(=O)Nc2ccccc2)=C(C)Nc2c(C(=O)Nc3ccc(F)cc3)cnn21` (configuration not stated), the Potency is reported as inconclusive: 10 µM [inhibitor, single point]. In the case of `CCn1cc(C(=O)N2CCN(c3ccc(OC)cc3)CC2)c2cc(OC)c(OC)cc2c1=O`, the Potency is reported as inconclusive: 11.2 µM [inhibitor, single point]. With `COc1ccc(C)cc1NC(=O)C1CCCN(c2cn[nH]c(=O)c2)C1` (configuration not stated) the Potency was inconclusive: 20 µM [inhibitor, single point]. With `c1ccc(CN2CC[C@@H]3COCCN(Cc4cccnc4)[C@@H]3C2)cc1` the Potency was inconclusive: 3.98 µM [inhibitor, partial curve, poor fit]. With `COc1ccc(C(=O)NCCn2ccn3nc(-c4ccc(C)c(C)c4)cc3c2=O)cc1` the Potency was inconclusive: 4.47 µM [inhibitor, partial curve]. For `CCCCSCCCNC(=O)c1c[nH]c2ccc(S(=O)(=O)Nc3cccc(OC)c3)cc2c1=O`, the Potency was inconclusive: 10 µM [inhibitor, single point]. With `Cc1ccc(S(=O)(=O)NCC(c2ccc(N(C)C)cc2)N2CCc3ccccc32)cc1` (configuration not stated) the Potency was inconclusive: 12.6 µM [inhibitor, partial curve]. With `CCOc1ccccc1NC(=O)CSC1=Nc2ccccc2C2=NC(CC(=O)NCc3ccc4c(c3)OCO4)C(=O)N12` (configuration not stated) the Potency was inconclusive: 14.1 µM [inhibitor, partial curve, poor fit]. For `COc1ccc(-c2nn(-c3ccccc3)cc2CN2CCC(C#N)CC2)c(F)c1`, the Potency was active: 11.2 µM. For `O=C(c1ccc2[nH]ccc2c1)N1CCCC(Cc2noc(-c3cnccn3)n2)C1` (configuration not stated), the Potency was inconclusive: 12.6 µM [inhibitor, single point]. For `O=C(NCCc1ccccc1)C1CCN(C(=O)c2ncn3c2COC(c2ccccc2)C3)CC1` (configuration not stated), the Potency was “inactive”. With `CNC(=O)N1CCCCCCNC(=O)[C@@H]2CCCC[C@@H]21` the Potency was “inactive”. With `COc1ccc(-c2ccnc3nc(CC(C)C)nn23)cc1OC` the Potency was inconclusive: 15.8 µM [inhibitor, partial curve, poor fit]. For `Cc1nnc(-c2cc(-c3ccc([S+](C)(=O)[O-])cc3)ccn2)n1CCN1CCOCC1`, the Potency was “inactive”. In the case of `COc1ccc(C(=O)N2CCC(N3C(=O)C(OC)C34CCOCC4)CC2)c(OC)c1` (configuration not stated), the Potency is reported as “inactive”. In the case of `COc1cncc(CN2CCC3(CC2)COCCN3C(=O)OCc2ccccc2)c1`, the Potency is reported as inconclusive: 12.6 µM [inhibitor, partial curve, poor fit]. For `CN(C)CCNC(=O)c1cc2n(n1)CCCN(C(=O)[C@@H]1CCCN1)C2`, the Potency was “inactive”. With `COc1cccc(NC(=O)CCc2nc(-c3cccs3)no2)c1` the Potency was “inactive”. For `CCOc1ccc(C(=O)c2cn(CC(=O)Nc3ccc(F)c(F)c3)c3cc4c(cc3c2=O)OCCO4)cc1`, the Potency was inconclusive: 17.8 µM [inhibitor, single point]. With `CC(C)(CN1CCOCC1)CN1CCCN(Cc2cccnc2)CC1` the Potency was “inactive”. For `c1ccc(-c2noc(-c3nc(-c4ccncc4)no3)n2)cc1`, the Potency was “inactive”. For `Cc1ncc2c(c1CNC(=O)c1sccc1S(N)(=O)=O)CCNC2`, the Potency was “inactive”. For `O=C(Cn1nc2c(cc1=O)CCCCC2)Nc1ccncc1`, the Potency was “inactive”. For `CCn1nccc1C(=O)N1CC(c2nnc(C(C)C)o2)C2(CCOCC2)C1` (configuration not stated), the Potency was “inactive”. With `Cc1cc(C(=O)N2[C@@H]3CC[C@H]2CC(NC(=O)c2ccc(F)cc2)C3)n[nH]1` (some centres not stated) the Potency was “inactive”. For `Cc1cc(Nc2cccc(Cl)c2)nc2ccc(NC(=O)c3cccc(N(C)C)c3)cc12`, the Potency was inconclusive: 17.8 µM [inhibitor, single point]. For `COCC(=O)N1CCOC[C@H](Oc2ccc(C(F)(F)F)cn2)C1`, the Potency was “inactive”. In the case of `COc1ccccc1-c1cc([C@H]2CN3CC[C@H]2C[C@@H]3CNC(=O)COc2ccccc2)n(C)n1`, the Potency is reported as inconclusive: 3.98 µM [inhibitor, single point]. In the case of `CCOc1ccccc1C(=O)Nc1ccc2nc3c(c(Nc4ccc(OC)c(OC)c4)c2c1)CCCC3`, the Potency is reported as active: 1.12 µM. In the case of `CCNC(=O)NC1(CCOC)CCN(C(=O)Cc2cccc(OC)c2)CC1`, the Potency is reported as “inactive”. In the case of `CCn1c2c(c(=O)n1Cc1ccccc1)CCN(C(=O)c1cnccn1)C2`, the Potency is reported as “inactive”. For `CC(C)Oc1ccc(CN2C[C@@H](CO)[C@H](c3ccncc3)C2)cc1`, the Potency was inconclusive: 7.94 µM [inhibitor, partial curve]. For `Cc1ccc(CN2C(=O)[C@@H]3C[C@@H](O)CN3C3(CN(Cc4ccccc4F)C3)C2=O)o1`, the Potency was inconclusive: 0.631 µM [inhibitor, full curve]. In the case of `COc1ccc(C(=O)N[C@@H]2CCC[C@@H]2C(=O)N2CCN(c3cccc(OC)c3)CC2)cc1`, the Potency is reported as inconclusive: 17.8 µM [inhibitor, single point]. With `Cc1cccc(NC(=O)c2ccc3nc(CCc4ccccc4)oc3c2)c1C` the Potency was inconclusive: 10 µM [inhibitor, partial curve, poor fit]. In the case of `CN1CCC(C(=O)N2CCC3(CC2)C(=O)NCN3C(=O)Cc2ccccc2)CC1`, the Potency is reported as “inactive”. For `CC(=O)c1ccc(NC(=O)O[C@@H]2CO[C@H]3[C@@H]2OC[C@@H]3n2nnnc2SCc2ccco2)cc1`, the Potency was active: 6.31 µM. For `Cc1cc(C)cc(CN2CCCCC23Cc2ccccc2CNC3=O)c1` (configuration not stated), the Potency was inconclusive: 10 µM [inhibitor, partial curve, poor fit]. In the case of `CCOc1ccc(NC(=O)CN2CCN(Cc3ccccc3)S2(=O)=O)cc1`, the Potency is reported as active: 5.62 µM. With `COc1ccccc1CNC(=O)c1cc2c(N3CCCC3)nc(C)cn2n1` the Potency was inconclusive: 6.31 µM [inhibitor, single point]. In the case of `O=C(c1cc(C2CC2)[nH]n1)N1CCOC(Cc2cccc(C(F)(F)F)c2)C1` (configuration not stated), the Potency is reported as inconclusive: 10 µM [inhibitor, single point]. In the case of `CCn1cc(-c2ccc(Cl)cc2)cc1C(=O)N1CCN(c2ccccn2)CC1`, the Potency is reported as inconclusive: 20 µM [inhibitor, single point]. With `CCC1Oc2ccc(NC(=O)Cc3ccccc3)cc2CN(Cc2ccccc2)C1=O` (configuration not stated) the Potency was inconclusive: 12.6 µM [inhibitor, partial curve, poor fit]. In the case of `COc1cccc(CC(=O)N2CCCC(c3noc(COc4ccccc4)n3)C2)c1` (configuration not stated), the Potency is reported as inconclusive: 5.62 µM [inhibitor, single point]. For `CCN(c1ccccc1)S(=O)(=O)c1ccc2[nH]cc(C(=O)NC3CCCCC3)c(=O)c2c1`, the Potency was inconclusive: 4.47 µM [inhibitor, partial curve]. In the case of `CC(C)C[C@@H]1N[C@H](C(=O)N2CCC(CO)CC2)Cc2c[nH]c3cccc1c23`, the Potency is reported as inconclusive: 14.1 µM [inhibitor, single point]. With `CC(C)CCN1CCOc2cc(C(=O)Nc3nccs3)ccc2C1` the Potency was inconclusive: 5.01 µM [inhibitor, full curve, poor fit]. In the case of `COC(=O)c1ccc(NC(=O)CCc2c(C)nc3c(c(C)nn3-c3ccc(C)cc3)c2C)cc1`, the Potency is reported as active: 6.31 µM. For `CCOC(=O)C1CCN(c2c(C(=O)c3ccc(OCC)cc3)cnc3ccc(OC)cc23)CC1`, the Potency was active: 10 µM. With `Cc1cc(C(=O)N[C@@H]2CN(Cc3ccccc3)C[C@H]2CO)c(C)o1` the Potency was inconclusive: 12.6 µM [inhibitor, partial curve, poor fit]. For `Cc1ccc(Cn2c(-c3cccc(Cl)c3)nc(C)c(CCO)c2=O)cc1`, the Potency was inconclusive: 17.8 µM [inhibitor, single point]. In the case of `CCOC(=O)c1cccc(NC(=O)CC(c2cc(OC)c(OC)c(OC)c2)N2Cc3ccccc3C2=O)c1` (configuration not stated), the Potency is reported as inconclusive: 11.2 µM [inhibitor, single point]. In the case of `c1ccc(C2=NOC3(CCN(C4CCCCC4)CC3)C2)cc1`, the Potency is reported as inconclusive: 14.1 µM [inhibitor, partial curve]. In the case of `COc1ccc2nc([C@H]3CCN(Cc4ccc(F)cc4)C3)[nH]c2c1`, the Potency is reported as inconclusive: 0.355 µM [inhibitor, full curve, poor fit]. In the case of `CCn1c(=NC(=O)c2ccc(S(=O)(=O)N3CCCCC3)cc2)sc2cccc(OC)c21`, the Potency is reported as inconclusive: 3.16 µM [inhibitor, full curve]. For `COc1cc(CN2CCC[C@H]2c2nc(-c3ccc(-c4ccncc4)nc3)no2)cc(OC)c1OC`, the Potency was active: 5.01 µM. With `Fc1ccc2cnc(N3CCC(N[C@H]4C[C@@H]5OCC[C@H]45)CC3)nc2c1` the Potency was active: 8.91 µM. In the case of `COCC(=O)N[C@@H]1CN(C(=O)c2cccc(C)c2)CC[C@@H]1c1nc(C)no1`, the outcome is reported as “inactive [at 5.79 µM]”. With `CCc1noc(C)c1C(=O)N1CCc2c(nc(-c3ccccn3)[nH]c2=O)C1` the Potency was “inactive”. For `Cn1cc(-c2cnc(Nc3cccnc3)c3c2CCO3)cn1`, the Potency was inconclusive: 11.2 µM [inhibitor, single point]. In the case of `CCCCNC(=O)C1CCN(C(=O)N2CC(C)Oc3ccc(Cl)cc32)CC1` (configuration not stated), the Potency is reported as “inactive”. For `N#Cc1ccc(C(=O)N2CCC(n3cc(-c4nc(C5CC5)no4)nn3)C2)cc1` (configuration not stated), the Potency was inconclusive: 3.55 µM [inhibitor, single point]. In the case of `CC1CCN(CC2CCCN(C(=O)c3ccc(F)cc3)CC2)CC1` (configuration not stated), the Potency is reported as inconclusive: 11.2 µM [inhibitor, single point].

— PubChem BioAssay AID1347417 (National Center for Advancing Translational Sciences (NCATS), 2020)
Potency is the fitted concentration of half-maximal effect; tags give direction and shape of the fitted curve.
